Laboratory results as given in publication PMC6212790.
This is one part of the list. At the low end of the ranking the order means little.

target: T1, GST-Rok (full length) (UniProt O34857); assay: protein binding microarray; settings: Rok is a gene silencer of Bacillus subtilis; high values mean tight binding; most listed sequences are background and not binding sites; double strand, one strand shown;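 note: rank score from −0.5 (least bound) to 0.5 (best bound)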
T1 sequence: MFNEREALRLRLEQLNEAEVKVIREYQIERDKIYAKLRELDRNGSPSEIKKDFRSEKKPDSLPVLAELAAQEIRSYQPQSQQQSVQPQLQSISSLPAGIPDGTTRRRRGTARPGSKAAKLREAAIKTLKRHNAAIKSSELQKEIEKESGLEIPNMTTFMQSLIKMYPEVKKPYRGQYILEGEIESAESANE

| Sequence | binding signal [E-score] |
| --- | --- |
| GGCACAAC | -0.164 |
| GGACCACA | -0.0732 |
| AAAGGCAT | 0.00646 |
| GCTCTCCC | -0.192 |
| ATGTCACA | 0.0735 |
| ATTAATCG | 0.129 |
| ACGTATAG | 0.146 |
| CTCCAATC | -0.0649 |
| ACTTATGA | 0.126 |
| AATTTAGA | 0.155 |
| ACGTTCAT | -0.0328 |
| GCCCACCC | -0.272 |
| CAGGGTAG | -0.0145 |
| ATCAAGAT | 0.182 |
| AGGCAAGA | -0.274 |
| AGATTCCG | 0.188 |
| ACGATGAT | 0.0193 |
| ACGAATTC | 0.137 |
| AAGTTTAC | -0.0932 |
| ACGATGAA | 0.0343 |
| CAATCGTC | 0.0329 |
| GACATGCC | 0.114 |

| Sequence | binding signal [E-score] |
| --- | --- |
| AAAGTTAC | 0.143 |
| AACTGTAA | 0.15 |
| CCGCCAAA | -0.222 |
| CCGTTCAG | -0.0823 |
| ACTCCCTC | -0.241 |
| CGATGACG | -0.152 |
| CTGGGACC | -0.294 |
| CCACACAA | -0.06 |
| CGCGAGTC | 0.0206 |
| ACACATCA | -0.138 |
| CTTCGTAC | 0.152 |
| CGGACCAG | -0.111 |
| AACCAAGA | -0.028 |
| ATACTGCG | 0.0629 |
| GGTGCGCA | -0.00866 |
| CATAGGGG | -0.27 |
| CGTGCTGC | -0.148 |
| ATCAGAGC | -0.105 |
| CGGACTAA | 0.0922 |
| CCCGACTC | -0.213 |
| GTCAGCCA | -0.148 |
| CTAACTCA | 0.181 |

| Sequence | binding signal [E-score] |
| --- | --- |
| TATTAACA | 0.283 |
| AAGGGTTC | -0.306 |
| AACCAAAG | -0.0704 |
| AAAGCAGA | 0.0688 |
| AAAAAGGG | -0.249 |
| GTGGTAAA | 0.192 |
| CCACCGTA | 0.00802 |
| ACACCCAA | -0.106 |
| ACAACGCG | 0.0629 |
| AAGGGAAG | -0.223 |
| CAACATCC | 0.131 |
| GGCCCCTA | -0.414 |
| AAATTTGT | 0.235 |
| AGGCTTGA | -0.216 |
| TACCATCA | 0.128 |
| CCAAATTC | -0.141 |
| CGCATATC | 0.131 |
| ATATGGGA | 0.0879 |
| CAGCGAGC | -0.234 |
| GCGCAAAA | -0.0246 |
| AGATATCC | -0.0591 |
| CGCTAAAC | 0.118 |

| Sequence | binding signal [E-score] |
| --- | --- |
| TATAATCA | 0.257 |
| AAATGACA | -0.0146 |
| GTAAGCCA | 0.0338 |
| GTGATCCA | 0.00987 |
| CCAGTTCC | -0.263 |
| AGCCCAAA | -0.17 |
| AGGGGTCA | -0.223 |
| ACGTTCTC | 0.0202 |
| GACGATCA | -0.189 |
| GAAGGTCA | -0.045 |
| AATGTATA | 0.388 |
| AGCATACC | 0.0206 |
| TTATTCAA | -0.176 |
| TCGCCCAA | -0.202 |
| CGTGCAAG | -0.124 |
| CGTCGGAA | -0.00391 |
| ACGTAAGT | -0.0971 |
| CAATAAGG | -0.1 |
| CCAACTAG | 0.0738 |
| ATTGTTGG | -0.0396 |
